According to the supplement of paper PMC7826260:
The other results are listed elsewhere or left out. Cleavage of a single-stranded DNA pool by Rep nickase domains was read by sequencing (1 h at 37 °C, 3 µM enzyme); the outer parts of the 90-letter strands are left off. Numbers give uncut DNA relative to the enzyme-free pool, as log2; the lower, the more was cut; hits are not called. Shares of all reads are compared; values above 0 arise when much of the pool is cut.

Test system: T1, Rep nickase domain of tomato golden mosaic virus
T1 sequence (residues 1-124, tag not shown): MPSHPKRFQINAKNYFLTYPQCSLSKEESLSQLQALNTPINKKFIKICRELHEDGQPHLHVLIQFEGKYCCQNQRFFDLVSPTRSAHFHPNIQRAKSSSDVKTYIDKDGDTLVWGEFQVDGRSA
Assay: uncleaved DNA left, log2 of reads against the no-enzyme library (log2 ratio); higher = less cleavage (more negative = more Rep cleavage of the k-mer); sequences stand for … in CTCGTCCG…ACCGGAGA
Procedure: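 A pool of 90-nt single-stranded DNAs with seven random bases just before the constant AC of the nick site (name = the seven bases) was cut by 3 µM recombinant His6-SUMO-tagged Rep nickase domain (300 nM DNA, 50 mM HEPES pH 8.0, 50 mM NaCl, 1 mM MnCl2, 1 h, 37 °C, three replicates). Uncut DNA was amplified and sequenced.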

Sequence | uncleaved DNA left (log2)
GTTGTTA | -0.135
ACGCTCC | -0.0761
TGTATCA | 0.0779
CCCGCAG | -0.0728
CATGCAA | -0.0929
AAGCAAA | -0.0411
GAGCACG | 0.0301
GTTGTAG | 0.246
CGGGTTC | -0.0115
GTCAGCA | 0.101
ACGTAGC | 0.00965
GAGCTAT | -0.0572
AGGTTAT | 0.0914
TCAACTG | 0.0377
CCGAGCA | -0.0116
CTACTCC | -0.0222
CCAAAAA | 0.217
TCCTCTC | -0.0983
CCTCGTG | 0.0797
GCTTTGT | -0.0242

Sequence | uncleaved DNA left (log2)
GCGAGGT | 0.083
TTTAGTT | 0.00556
TGATGAC | -0.00682
GACTCAG | 0.00346
ATTGGCG | 0.142
CCGCTAG | 0.0477
TTTCGGC | 0.0237
AGAGATA | 0.0607
TCGGCCA | -0.0534
CATGTAA | 0.102
ACTTTGT | 0.0504
ATCATCT | 0.0552
AACAATG | 0.141
CCTACCT | -0.202
AGGCCAT | 0.0225
GAACTTC | -0.0595
GGTACTG | -0.00559
TTCCATA | 0.135
ACCCGGC | 0.0131
CATCGAT | -0.127
